Hit rate of the full screen: of about 330,000 compounds, about 1,700 (0.52%) were called active. The inconclusive results got no clear call from the source; some entries with a clear call stand among them for comparison. Calls come from the whole dose curve; as a rule, active = well fitted inhibition curve with a large enough effect; inconclusive = small, poorly fitted or top-dose-only effect; inactive = no such curve, though single readings can be large or run the other way. Where the call is inconclusive, the potency comes from a doubtful curve fit.
Target: Beta-lactamase (Escherichia coli (strain K12)) (UniProt P00811)
Assay: qHTS Inhibitors of AmpC Beta-Lactamase (assay without detergent); note: nearly all actives have a fitted effect of over 20% in size;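 for activity change, negative = inhibition: plate controls were no compound for no effect and no enzyme for full effect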
Conditions: AmpC nitrocefin hydrolysis, absorbance 480 nm, 0.0001% Triton; activity change, negative = inhibition: at 57.1 µM (top of the series) unless noted
Outline: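 AmpC (5.3 nM in the dispensed reagent) in 20 mM phosphate pH 7.0 with 0.01% (detergent screen) or 0.0001% Triton X-100 was preincubated with compounds for 15 min at room temperature. Nitrocefin was then added from an 800 uM solution, and hydrolysis was followed at 480 nm.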
Potency is the fitted concentration of half-maximal effect; tags give direction and shape of the fitted curve.

UniProt P00811, sequence (P00811 whole entry, looked up): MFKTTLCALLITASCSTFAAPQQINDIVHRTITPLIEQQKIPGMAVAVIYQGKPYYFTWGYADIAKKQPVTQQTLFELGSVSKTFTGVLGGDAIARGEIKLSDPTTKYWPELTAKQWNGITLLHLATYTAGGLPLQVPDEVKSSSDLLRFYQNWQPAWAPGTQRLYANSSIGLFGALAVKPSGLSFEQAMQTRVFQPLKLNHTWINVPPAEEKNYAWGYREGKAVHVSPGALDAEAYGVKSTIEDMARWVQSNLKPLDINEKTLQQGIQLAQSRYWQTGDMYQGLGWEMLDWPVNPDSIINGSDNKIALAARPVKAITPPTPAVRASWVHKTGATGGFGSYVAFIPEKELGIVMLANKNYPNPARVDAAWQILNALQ

| Compound | activity change, negative = inhibition | Potency |
| --- | --- | --- |
| O=C(O)/C=C\C(=O)NNC(=O)c1cc(-c2ccccc2)n[nH]1 | inactive: -46.4% |  |
| Oc1cccc(/C=N/NC(=S)Nc2cccnc2)c1O |  | active: 31.6 µM |
| CC(=O)c1ccccc1NC(=O)CSc1nc2ccccc2c(=O)n1CCCN1CCOCC1 | inactive: -18.6% |  |
| CCCCN(C)CCCNC(=O)c1cn(C)c2ccc(S(=O)(=O)N(C)C3CCCCC3)cc2c1=O | inactive: 14.9% |  |
| Cc1noc(C)c1C(=O)N(CC(=O)NC1CCCC1)Cc1ccccc1F |  | inconclusive: 5.01 µM [inhibitor, single point] |
| CC(C)c1ccc(/C=C/C(=O)N2CCCCCC2)cc1 | inactive: 29.9% |  |
| COc1ccc(C(=O)/C=C/Nc2ccc([N+](=O)[O-])cc2C)c(OC)c1 |  | active: 1.26 µM |
| CCn1c(/C=N/NC(=O)c2ccc(OC)cc2)nc2ccccc21 |  | inconclusive: 1.78 µM [inhibitor, partial curve, poor fit] |
| COc1ccc(-c2nnc3ccc(SCC(=O)NCC4CCCO4)nn23)cc1 (centres undefined) |  | inconclusive: 7.08 µM [inhibitor, partial curve, poor fit] |
| CCC1=NN2C(=N)/C(=C\c3cccn3-c3ccc(Cl)cc3)C(=O)N=C2S1 |  | active: 0.891 µM |
| CCC(=O)NC(c1ccccc1)c1nc2ccccc2[nH]1 (centres undefined) | inactive: -12.9% |  |
| O=C(NC(=S)Nc1ccc(-c2ccc(CO)o2)cc1)c1cccs1 |  | active: 10 µM |
| CC1CN(CCOc2ccc(Cl)cc2Cl)CC(C)O1 (centres undefined) | inactive: 54.6% |  |
| Cc1cc(C)c2cc(CN(Cc3ccc4c(c3)OCO4)Cc3nnnn3Cc3ccco3)c(=O)[nH]c2c1 |  | inconclusive: 3.16 µM [inhibitor, partial curve] |
| Cc1ccc(NC(=O)CN2C(=O)N/C(=C/c3ccco3)C2=O)cc1 |  | inconclusive: 14.1 µM [inhibitor, partial curve] |
| COc1ccc(Cl)cc1NC(=O)CSc1nc(N2CCCCC2)nc(N2CCCCC2)n1 |  | inconclusive: 6.31 µM [inhibitor, single point] |
| Cc1ccc(SC(C)C(=O)N2CCCC2)cc1 (centres undefined) |  | inconclusive: 6.31 µM [inhibitor, single point] |
| COC(=O)c1cc(NS(=O)(=O)c2ccc(N3CCC(C)CC3)c([N+](=O)[O-])c2)cc(C(=O)OC)c1 |  | inconclusive: 3.55 µM [inhibitor, full curve, poor fit] |
| O=C(N/N=C/c1ccc(O)cc1)c1cc(C23CC4CC(CC(C4)C2)C3)[nH]n1 |  | inconclusive: 3.55 µM [inhibitor, full curve, poor fit] |
| NC(=O)c1ccc(-n2nnnc2SCC(=O)Nc2ccccc2-c2ccccc2)cc1 |  | inconclusive: 5.62 µM [inhibitor, single point] |
| CCN(C1CCCCC1)S(=O)(=O)c1ccc(S(=O)(=O)N2CCN(CCC#N)CC2)cc1 |  | active: 6.31 µM |
| CCOC(=O)c1cnn(CCOC(=O)Cc2cccs2)c1NC(=O)Cc1cccs1 |  | inconclusive: 2.51 µM [inhibitor, partial curve, poor fit] |

| Compound | activity change, negative = inhibition | Potency |
| --- | --- | --- |
| Cc1ccc2nc(SCC(=O)NCc3ccco3)nc(=O)n2c1 |  | inconclusive: 31.6 µM [inhibitor, single point] |
| O=C(NCCCN1CCOCC1)C(Sc1ccccc1)c1ccccc1 (centres undefined) |  | inconclusive: 0.126 µM [inhibitor, full curve, poor fit] |
| COC(=O)CNC(=O)COC(=O)/C=C/c1cccs1 | inactive: -5.72% |  |
| Cc1ccc2nc(SCC(=O)NCc3ccc(F)cc3)nc(=O)n2c1 |  | inconclusive: 39.8 µM [inhibitor, single point] |
| COc1ccc(S(=O)(=O)N2CCN(C)CC2)c2ccccc12 |  | inconclusive: 0.631 µM [inhibitor, full curve, poor fit] |
| COC(=O)c1cc(S(=O)(=O)Nc2cc(OC)cc(OC)c2)cn1C |  | inconclusive: 39.8 µM [inhibitor, single point] |
| O=[N+]([O-])c1ccc2[nH]cc(S(=O)(=O)N3CCN(c4cccc(Cl)c4)CC3)c2c1 |  | inconclusive: 7.94 µM [inhibitor, full curve, poor fit] |
| C/C(=N\NC(=O)c1cc(C2CC2)nc2ccccc12)c1ccc(O)cc1O |  | inconclusive: 15.8 µM [inhibitor, partial curve] |
| COc1ccc(/C=N/N2CCN(C)CC2)cc1O | inactive: -15.6% |  |
| CCS(=O)(=O)NC(C)C(c1cccs1)N1CCN(c2ccc(F)cc2)CC1 (centres undefined) |  | inconclusive: 100 µM [inhibitor, partial curve, poor fit] |
| CCC(=O)c1ccc(N2CCN(C(=O)Cc3ccccc3)CC2)c(F)c1 |  | inconclusive: 8.91 µM [inhibitor, single point] |
| CCc1ccc(OCc2nc(-c3ccccn3)no2)c(Br)c1 |  | inconclusive: 5.62 µM [inhibitor, single point] |
| CC(C)CCNC(=O)Cn1cc2c(n1)CCCCC2 |  | active: 44.7 µM |
| O=C(NCC1CCCN1S(=O)(=O)c1cccs1)C(=O)Nc1ccc(F)cc1 (centres undefined) |  | active: 28.2 µM |
| O=C(Nc1cccc(NC(=O)c2ccc(-c3ccc(Br)cc3)o2)c1)c1ccco1 |  | inconclusive: 3.98 µM [inhibitor, full curve, poor fit] |
| CC(O)C(=O)N/N=C/c1cccc(Cl)c1Cl (centres undefined) |  | inconclusive: 0.141 µM [inhibitor, full curve, poor fit] |
| Cc1ccc(C(=O)c2c(NC(=O)c3ccncc3)sc3c2CCCC3)cc1 |  | inconclusive: 5.62 µM [inhibitor, single point] |
| CCCCN(CC)CCCNC(=O)CC1Oc2ccccc2NC1=O (centres undefined) |  | inconclusive: 0.282 µM [inhibitor, full curve, poor fit] |
| COC(=O)c1ccc(NC(=O)c2nc(S(=O)(=O)Cc3cccc(C)c3)ncc2Cl)cc1 | inactive: -31% |  |
| CCOC(=O)C(=O)/C(=C\N(C)C)c1onc(-c2ccccc2)c1C(=O)OC |  | inconclusive: 0.708 µM [inhibitor, partial curve, poor fit] |
| Cc1cn2c(-c3ccc(Cl)cc3)nnc2s1 |  | active: 20 µM |
| CN(C)CCCN(C(=O)c1ccc(S(=O)(=O)N2CCCCCC2)cc1)c1nc2cc3c(cc2s1)OCCO3 |  | inconclusive: 35.5 µM [inhibitor, single point] |
